# Test results taken from PubChem BioAssay AID485344 (National Center for Advancing Translational Sciences (NCATS), 2010).
# Values joined by “and” are separate entries in the source; they are usually repeats but may differ in a detail not shown here. Identical values can stand only once. Among all 340,000 compounds or so, about 6,900 (2%) were called active. Rule as the data show it: active = inhibition above about 30%; inactive = below that, where a call was filed. Only a part is listed here, and it is no random draw. The source gives no active or inactive call for entries shown without one.
# Target: D(2) dopamine receptor (Homo sapiens) (UniProt P14416)
# Sequence of UniProt P14416 (P14416 whole entry, looked up): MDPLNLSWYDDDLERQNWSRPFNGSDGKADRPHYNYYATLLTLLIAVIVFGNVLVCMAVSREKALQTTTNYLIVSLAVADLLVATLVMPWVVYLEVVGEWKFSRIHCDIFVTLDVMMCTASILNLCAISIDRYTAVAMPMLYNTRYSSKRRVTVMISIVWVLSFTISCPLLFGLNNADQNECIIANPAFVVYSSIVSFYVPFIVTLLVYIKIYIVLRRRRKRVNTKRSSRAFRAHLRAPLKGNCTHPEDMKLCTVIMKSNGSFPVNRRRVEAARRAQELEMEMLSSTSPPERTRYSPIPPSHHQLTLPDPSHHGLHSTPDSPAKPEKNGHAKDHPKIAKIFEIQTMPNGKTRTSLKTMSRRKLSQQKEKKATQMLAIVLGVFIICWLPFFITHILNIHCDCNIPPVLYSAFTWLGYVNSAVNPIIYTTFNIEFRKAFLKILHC
# Test: HTS Assay for Allosteric Antagonists of the Human D2 Dopamine Receptor: Primary Screen for Antagonists; also: 0% is about no effect
# Settings: HEK293 TREx D2 cells, calcium flux, dopamine EC80; at 10 µM; stronger effect = higher value
# Outline: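 Calcium flux kinetic readout in an inducible HEK293 TREx D2 line plated overnight at 30 C. After 180 s compound exposure, an EC80 dopamine challenge follows with another 180 s kinetic read to detect antagonism.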
row,Compound,inhibition
1,COc1cccc(CNC(=O)CCc2nnc3n(CC(C)C)c(=O)c4ccccc4n23)c1,-9.06%
2,Cc1sc2c(c1C)c(=O)n(-c1ccccc1)c(=O)n2CC(=O)c1ccc(Cl)cc1,-14.2%
3,CC(C)OCCCn1c(SCC(=O)Nc2ccc(F)cc2)nc2c(sc3ccccc32)c1=O,17.8%
4,CCCCCOC(=O)CSc1nc2sc3c(c2c(=O)n1Cc1ccccc1)CC(C)(C)OC3,1.87%
5,CC(C)(C)C1CCc2c(sc(NC(=O)Cn3nnc(-c4cccc(C(F)(F)F)c4)n3)c2C#N)C1 (configuration not stated),-11.7%
6,Cn1c(CNC(=O)CSc2n[nH]c(-c3ccccc3)n2)nc2ccccc21,-1.82%
7,O=C(Cn1c(=O)n(-c2ccc(Cl)cc2)c(=O)c2c3c(sc21)CCC3)c1ccc(F)cc1,5.32%
8,CCN1CCSc2ccc(C(=O)NCc3cccc(F)c3)cc21,-2.56% and active: 44.2%
9,COc1ccccc1N1CCN(C(=O)CSc2nc3ccccc3nc2Cc2ccc(F)cc2)CC1,20%
10,CCOC(=O)C1(CCOc2ccccc2)CCN(Cc2ccc(O)c(OCC)c2)CC1,active: 39%
11,Cc1csc2nc(COc3ccc(NC(=O)COc4ccccc4F)cc3)cc(=O)n12,18.5%
12,CC(C(=O)NCc1ccccc1)N1Cc2ccccc2C1=O (configuration not stated),-3.55%
13,CC1CCN(C(=O)CSc2nc(-c3ccc(C(C)C)cc3)no2)CC1,-3.41%
14,CCC1CCCCN1CCCNC(=O)c1ccc2c(c1)N(Cc1ccccc1F)C(=O)c1ccccc1S2(=O)=O (configuration not stated),-3.95%
15,N#Cc1ccc(COC(=O)Cn2nnc(-c3ccccc3)n2)cc1,active: 32.5%
16,CCCS(=O)(=O)N1CC(=O)N(c2ccccc2F)C(C)(C(=O)NC2CCCCCC2)C1 (configuration not stated),-8.03%
17,Cc1ccc(C(=O)Nc2ccc3c(c2)N(C)C(=O)c2ccccc2S3)cc1,-0.643%
18,COc1cc(CNC(=O)CSCc2nc3cccnc3n2C2CCCCC2)cc(OC)c1OC,17.6%
19,Cc1ccc(C)c(NC(=O)CCc2nc(-c3ccc(C(C)(C)C)cc3)no2)c1,-1.61%
20,CCC(=O)N1CCc2cc(CNC(=O)Nc3ccccc3Cl)ccc21,-6.18%
21,O=C(CCNS(=O)(=O)c1ccc2c(c1)CCCC(=O)N2)NCc1ccccc1Cl,-6.58%
22,CCOc1cc(C#N)c(NC(=O)c2cccc(S(=O)(=O)N3CCOCC3)c2)cc1OCC,20.6%
23,COc1ccc(C(=O)Nc2ccc(C(=O)OCC(=O)c3cccc4ccccc34)cc2)cc1,active: 76.4%
24,CCc1ccc(OCC(O)CN2CCN(c3ccccc3)CC2)cc1 (configuration not stated),active: 109%
25,CCCc1ccc(OCC(=O)Nc2scc(-c3cccs3)c2C(=O)OC)cc1,-1.08%

row,Compound,inhibition
1,CC(C)c1nc(C#N)c(NCCCn2ccnc2)o1,active: 43.4%
2,O=C(c1ccc2c(c1)N(Cc1ccc(F)cc1)CCS2)N1CCN(c2ccccc2)CC1,13.7%
3,CCc1c(C)sc2c1CCN(C(=O)Nc1ccccc1C(=O)OC)C2c1ccc(F)cc1 (configuration not stated),9.89%
4,CCCC12CN3CC(C)(CN(C1)C3c1ccccc1Cl)C2=O (configuration not stated),6.92%
5,O=C(Nc1ccc(Br)cc1)N1CCC(CN2CCCC2)CC1,27.5%
6,CCNC(=O)c1c(NC(=O)COc2ccc(F)cc2)sc2c1CCCC2,-8.78%
7,COc1ccc(NC(=O)CSc2c3c(nc4ccc(Cl)cc24)CCCC3)cc1Cl,-0.748%
8,CCOc1ccc(C2C(C(=O)Nc3ccc(OC)cc3)=C(C)Nc3nc(SCc4ccc(Cl)cc4)nn32)cc1 (configuration not stated),0.931%
9,Cc1c(Cl)cccc1NC(=O)c1ccc(NC(=O)N2CCSc3ncccc32)cc1,-5.03%
10,Cc1ccccc1NC(=O)CS(=O)(=O)c1cccc2nsnc12,20.2%
11,Cc1ccc(CNC(=O)CSc2c3c(nc4ccc(Cl)cc24)CCCC3)cc1,3.49%
12,Cc1c(C2=CCN(S(=O)(=O)c3ccc(Br)cc3)CC2)c2ccccc2n1CC(=O)N1CCCC1,-0.0957%
13,COc1ccc2nc3oc(C(=O)Nc4cccc(C(F)(F)F)c4)cc3cc2c1,-6.16%
14,Cc1cc(C)cc(NS(=O)(=O)c2ccc3c(c2)OCC(C(=O)N2CCCC2)O3)c1 (configuration not stated),4.18%
15,CCOc1ccc(NC(=O)CN(Cc2ccccc2)S(=O)(=O)c2ccc(Cl)cc2)cc1,4.07%
16,COc1ccc(-n2nc(C(=O)Nc3ccc(Br)cc3C)c3c4ccccc4n(C)c3c2=O)cc1,6.06%
17,CCOc1ccc(C2C=C(c3cccc(OC)c3)Nc3nnnn32)cc1 (configuration not stated),6.28%
18,COc1ccc(C(=O)N2CC(=O)Nc3ccc(C)cc3C2c2ccccc2)cc1OC (configuration not stated),1.22%
19,CCN(C(=O)Cn1c(SCC(=O)Nc2ccc(OC)cc2)nc2ccccc21)c1cccc(C)c1,5.2%
20,CC(C)(C)c1ccc(C(=O)NNc2ncnc3c2cnn3-c2ccccc2)cc1,15.8%
21,O=C(COc1ccccc1)NCC(c1cccs1)S(=O)(=O)c1ccc(Cl)cc1 (configuration not stated),-19.3%
22,Cc1cc(C)n2c(Nc3ccccc3C)c(-c3cccs3)nc2n1,11.9%
23,COc1cccc(C(=O)Nc2ccc(-n3nncc3-c3ccc(Br)cc3)cc2)c1OC,15.7%
24,COc1ccc(OCC(=O)N2CCN(C(=O)c3cc(OC)c(OC)c(OC)c3)CC2)cc1,-9.75%
25,CCOc1ccccc1NC(=O)N(C)CCc1c(C)nn(CC)c1C,-0.489%

row,Compound,inhibition
1,Cc1ccc(NC(=O)c2ccc(=O)n(CC(=O)Nc3c(C)cc(C)cc3C)n2)cc1,-11.5%
2,Oc1ccc(N2CCN(Cc3ccc(OCCCN4CCCCC4)cc3)CC2)cc1,active: 91.3%
3,Cc1ccc(COc2ccc3oc(-c4ccccc4)c(C(=O)O)c3c2)cc1,10.5%
4,Cc1oc2ncnc(N3CCOCC3)c2c1C(=O)N1CCN(c2cccc(C(F)(F)F)c2)CC1,3.89%
5,Cc1ccc(Oc2nc3c(c(=O)n(Cc4ccccc4)c(=O)n3C)n2C)cc1C,10.3%
6,COc1cccc(-c2ccnc3c(-c4ccc(F)cc4)c(C)nn23)c1,3.49%
7,CCCn1c(=N)c(C(=O)NCc2cccnc2)cc2c(=O)n3cccc(C)c3nc21,10.6%
8,COc1ccc(NC(=O)C2=C(C)Nc3ncnn3C2c2ccc(C)o2)cc1 (configuration not stated),-26.5%
9,CC1(C)CC(=O)c2cc(C(=O)Nc3ccc(Br)cc3)c(=O)[nH]c2C1,16.1%
10,CCN(C(=O)C1CCC(CNS(=O)(=O)c2cccc3nsnc23)CC1)c1ccccc1 (configuration not stated),16.1%
11,CCN(C(=O)C1CCC(CNS(=O)(=O)c2cccc3nsnc23)CC1)c1cccc(C)c1 (configuration not stated),-1.88%
12,Cc1cc(C)cc(NC(=O)Cn2c(=O)n(C(C)C)c(=O)c3oc4ccccc4c32)c1,0.0976%
13,O=C(Cc1ccc(NC(=O)N2CCSc3ncccc32)cc1)NCc1ccccc1,0.138%
14,Cc1ccc(S(=O)(=O)N(CC(O)Cn2c3ccccc3c3ccccc32)c2cccc(C(=O)N(C)C)c2)cc1 (configuration not stated),6.03%
15,COc1ccc(C2=NN(S(C)(=O)=O)C(c3cn(-c4ccccc4)nc3-c3cccs3)C2)cc1 (configuration not stated),-10.3%
16,C#CCN1C(=O)C(O)(CC(=O)c2ccc(OC)c(OC)c2)c2cc(Br)ccc21 (configuration not stated),-21.1%
17,COc1ccc(C(=O)NCC(c2ccc3c(c2)OCO3)N2CCOCC2)cc1 (configuration not stated),-28.1%
18,Cc1ccc(CN2C(=O)c3ccccc3Sc3ccc(C(=O)NCc4ccco4)cc32)cc1,-18.1%
19,Cc1cc(C)c(NS(=O)(=O)c2ccc3c(c2)NC(=O)CCS3)c(C)c1,0.692%
20,O=C(COc1ccc(Cl)cc1)N(Cc1ccco1)c1ccccn1,-9.21%
21,CC1CCCN(Cc2c(O)ccc3c(=O)c(-c4ccccc4Cl)c(C(F)(F)F)oc23)C1 (configuration not stated),1.42%
22,O=C(NC1CCCC1)c1ccc(CSc2nc3cccnc3n2Cc2ccccc2F)cc1,-2.61%
23,O=C(Cn1c(-c2cccs2)cc2ccccc21)NCCCN1CCN(c2ccc(F)cc2)CC1,0.202%
24,CCCCCOc1ccccc1Cn1c(=O)oc2ccc(C)cc21,-0.951%
25,COCCNC(=O)CCSc1nc(-c2ccc(OC)cc2)cc(C(F)(F)F)n1,-14.6%

row,Compound,inhibition
1,Cc1ccc(Nc2c(-c3ccc(N4CCOCC4)cc3)nc3ncccn23)c(C)c1,-6.01%
2,CC(=O)c1ccc(NC(=O)CSc2nnc(NC(=O)NC3CCCCC3)s2)cc1,22.6%
3,Cc1ccn2c(Nc3ccc(C(C)C)cc3)c(-c3ccsc3)nc2c1,-4.89%
4,CC(C)OCCCNC(=O)c1c2c(nc3ccccc13)C(=O)N(C1CCCCC1)C2,2.13%
5,COc1cccc(/C=C/C(=O)OCC(=O)Nc2cc(C(F)(F)F)ccc2Cl)c1,active: 34.3%
6,Cc1cccc(Cn2c(CNC(=O)c3ccccc3)nc3ccccc32)c1,21.5%
7,CCOC(=O)c1cc(-c2ccccc2)n(CC(=O)Nc2cc(Cl)c(OC)cc2OC)c1C,-2.61%
8,Cc1cc(C)c(NC(=O)Nc2sc3nc4n(c(=O)c3c2C)CCC(C)CC4)c(C)c1 (configuration not stated),-10%
9,Cc1cc(C)cc(Nc2ncnc3sc4c(c23)CCCC4)c1,-3.33%
10,COc1c(Cl)cc(Cl)cc1C(=O)Nc1cccc2cccnc12,8.56%
11,CCc1cccc(NC(=O)CSc2nccn2C)c1,-20.1%
12,CCOC(=O)c1cc(S(=O)(=O)Nc2cc(C)c(Cl)cc2OC)[nH]n1,3.22%
13,Cc1ccc(C(=O)Nc2cccc(C(F)(F)F)c2)cc1Nc1cnccn1,active: 58.6%
14,COc1ccc(NCc2cccn2-c2nnc(N3CCC(C)CC3)s2)c(OC)c1,9.9%
15,CCc1ccc(NC(=O)C(=O)NCCc2sc(-c3ccc(C)cc3)nc2C)cc1,1.4%
16,O=C(CSc1nc2c(c(=O)[nH]1)CCC2)Nc1cc(C(F)(F)F)ccc1Cl,7.25%
17,CSc1ccc(-c2nc3cc(C)ccn3c2Nc2ccc(C)cc2)cc1,-4%
18,Cc1cccc(-c2nc(S(=O)(=O)c3ccccc3)c(N3CCN(c4ccccc4)CC3)o2)c1,11.3%
19,O=C(NCC1CCCO1)c1cc(S(=O)(=O)Nc2ccc(Br)cc2)ccc1Cl (configuration not stated),active: 52.5%
20,CCOCCn1c(=NC(=O)c2ccc3c(c2)OCCO3)sc2cc(OCC)ccc21,9%
21,COCC(C)NC(=O)C1=CC(c2ccc3c(c2)OCO3)=NS(=O)(=O)N1C (configuration not stated),4.35%
22,CCC(C(=O)NC1CCCCC1)n1nc(C)c2sc3ccccc3c2c1=O (configuration not stated),4.48%
